The list shows a part of the results. Rule as the data show it: active = 3.2 or more and inactive = the rest. Most of these values are background signal.
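Also: displayed peptides selected on beads carrying the immobilized SH2 domain, with library peptides lacking any tyrosine serving as negative controls.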

One test deals with SHP2 C-SH2 domain E139D. The experiment in a line: enrichment score (SH2-bound / input frequency) (ratio); bacterial display of known human phosphotyrosine sites (pTyr-Var adds point mutants) read by sequencing; higher = stronger binding; tyrosines were phosphorylated by kinases first. The following applies: peptide library: Human pTyr.
For DPDSLADYFKKLNAK [LCP2_HUMAN_23_YA], the enrichment score was inactive: 1.06.
In the case of EASQDVTYAQLHSLT [LIRB3_HUMAN_595], the enrichment score is inactive: 0.749.
On the same count and under the same terms, for IDPIAMEYANWGRFS [LAT2_HUMAN_118_YA] the value was inactive: 1.11.
For the molecule SNYKEDYYLTPERLW [LMTK3_HUMAN_297], the enrichment score was inactive: 0.94.
For GDDSDEDYEKVPLPN [3BP2_HUMAN_448], the enrichment score is inactive: 1.1.
For the molecule SMESIDDYVNVPESG [LAT_HUMAN_200], the enrichment score was inactive: 0.694.
For DDYHNPGYLVVLPDS [LAT_HUMAN_161], the enrichment score is inactive: 0.839.
Turning to DDAHNPGYLVVLPDS [LAT_HUMAN_161_YA], the enrichment score is inactive: 0.689.
The same measure, in the same setting: for AGIGFSRYKEDAIET [LMTK2_HUMAN_291_YA] the value was inactive: 1.02.
With TLKDQLIYNLLKEEQ [LDHA_HUMAN_10], the enrichment score was inactive: 0.81.
Take DPIAMEAYNWGRFSK [LAT2_HUMAN_119_YA]: the enrichment score was inactive: 0.64.
For TNFTNPVYATLAMGG [LRP1_HUMAN_4507_YA], the enrichment score was inactive: 1.57.
Turning to NDKKSIYYLGVTSIK [LEPR_HUMAN_1079], the enrichment score was inactive: 2.
For AYQSRDYYNFPLALA [ANDR_HUMAN_365], the enrichment score is inactive: 1.99.
Regarding YGLAHSNYKEDYYLT [LMTK3_HUMAN_292], the enrichment score was inactive: 1.2.
Turning to FGMARDIYRASAARR [LTK_HUMAN_672_YA], the enrichment score was inactive: 0.561.
For the molecule GSSQEVTYAQLDHWA [LAIR1_HUMAN_251], the enrichment score was inactive: 2.16.
With SSEDSHDYVNVPTAE [LAX1_HUMAN_193], the enrichment score was inactive: 1.3.

The next test concerns the target SHP2 C-SH2 domain wild-type. The test is described as above. The following applies: peptide library: Human pTyr.
Take DPDSLADYFKKLNAK [LCP2_HUMAN_23_YA]: the enrichment score was inactive: 0.789.
As to EASQDVTYAQLHSLT [LIRB3_HUMAN_595], the enrichment score is inactive: 1.05.
With IDPIAMEYANWGRFS [LAT2_HUMAN_118_YA], the enrichment score is inactive: 0.753.
For the molecule SNYKEDYYLTPERLW [LMTK3_HUMAN_297], the enrichment score is inactive: 0.926.
As to GDDSDEDYEKVPLPN [3BP2_HUMAN_448], the enrichment score was inactive: 0.964.
For the molecule SMESIDDYVNVPESG [LAT_HUMAN_200], the enrichment score was inactive: 0.88.
As to DDYHNPGYLVVLPDS [LAT_HUMAN_161], the enrichment score was inactive: 0.584.
As for DDAHNPGYLVVLPDS [LAT_HUMAN_161_YA], the enrichment score was inactive: 0.607.
As for AGIGFSRYKEDAIET [LMTK2_HUMAN_291_YA], the enrichment score is inactive: 0.972.
TLKDQLIYNLLKEEQ [LDHA_HUMAN_10]: the enrichment score was inactive: 0.904.
The same measure, in the same setting: the result for DPIAMEAYNWGRFSK [LAT2_HUMAN_119_YA] reads inactive: 0.831; that for TNFTNPVYATLAMGG [LRP1_HUMAN_4507_YA], inactive: 2.44; that for NDKKSIYYLGVTSIK [LEPR_HUMAN_1079], inactive: 2.24.
AYQSRDYYNFPLALA [ANDR_HUMAN_365]: the enrichment score is inactive: 2.27.
In the case of YGLAHSNYKEDYYLT [LMTK3_HUMAN_292], the enrichment score is inactive: 1.
Same read-out and setting: the result for FGMARDIYRASAARR [LTK_HUMAN_672_YA] reads inactive: 0.568; that for GSSQEVTYAQLDHWA [LAIR1_HUMAN_251], active: 4.32; that for SSEDSHDYVNVPTAE [LAX1_HUMAN_193], inactive: 1.23.

Another test has as its target SHP2 N-SH2 domain L43F. Described as above. The following applies: peptide library: Human pTyr.
Regarding DPDSLADYFKKLNAK [LCP2_HUMAN_23_YA], the enrichment score is inactive: 1.23.
With EASQDVTYAQLHSLT [LIRB3_HUMAN_595], the enrichment score was inactive: 0.621.
IDPIAMEYANWGRFS [LAT2_HUMAN_118_YA]: the enrichment score was inactive: 0.72.
Turning to SNYKEDYYLTPERLW [LMTK3_HUMAN_297], the enrichment score was inactive: 1.34.
For the molecule GDDSDEDYEKVPLPN [3BP2_HUMAN_448], the enrichment score was inactive: 0.967.
As for SMESIDDYVNVPESG [LAT_HUMAN_200], the enrichment score was inactive: 0.711.
Still for that read-out and setting: the result for DDYHNPGYLVVLPDS [LAT_HUMAN_161] reads inactive: 0.696; that for DDAHNPGYLVVLPDS [LAT_HUMAN_161_YA], inactive: 0.747.
AGIGFSRYKEDAIET [LMTK2_HUMAN_291_YA]: the enrichment score was inactive: 0.976.
With TLKDQLIYNLLKEEQ [LDHA_HUMAN_10], the enrichment score was inactive: 1.02.
With DPIAMEAYNWGRFSK [LAT2_HUMAN_119_YA], the enrichment score was inactive: 0.678.
Same read-out and setting: for TNFTNPVYATLAMGG [LRP1_HUMAN_4507_YA] the value was inactive: 1.62.
Still for that read-out and setting: the result for NDKKSIYYLGVTSIK [LEPR_HUMAN_1079] reads inactive: 2.01; that for AYQSRDYYNFPLALA [ANDR_HUMAN_365], inactive: 1.97.
With YGLAHSNYKEDYYLT [LMTK3_HUMAN_292], the enrichment score is inactive: 0.776.
Turning to FGMARDIYRASAARR [LTK_HUMAN_672_YA], the enrichment score was inactive: 0.628.
On to GSSQEVTYAQLDHWA [LAIR1_HUMAN_251], for which the enrichment score is active: 10.8.
As to SSEDSHDYVNVPTAE [LAX1_HUMAN_193], the enrichment score was inactive: 1.38.

The next test has as its target SHP2 N-SH2 domain T42A. The test is described as above. The following applies: peptide library: Human pTyr.
As for DPDSLADYFKKLNAK [LCP2_HUMAN_23_YA], the enrichment score was inactive: 0.787.
On the same count and under the same terms, for EASQDVTYAQLHSLT [LIRB3_HUMAN_595] the value was inactive: 2.31.
As to IDPIAMEYANWGRFS [LAT2_HUMAN_118_YA], the enrichment score is inactive: 0.994.
For SNYKEDYYLTPERLW [LMTK3_HUMAN_297], the enrichment score was inactive: 1.44.
Regarding GDDSDEDYEKVPLPN [3BP2_HUMAN_448], the enrichment score was inactive: 0.825.
Regarding SMESIDDYVNVPESG [LAT_HUMAN_200], the enrichment score was inactive: 0.923.
Turning to DDYHNPGYLVVLPDS [LAT_HUMAN_161], the enrichment score is inactive: 0.666.
For the molecule DDAHNPGYLVVLPDS [LAT_HUMAN_161_YA], the enrichment score is inactive: 0.733.
As for AGIGFSRYKEDAIET [LMTK2_HUMAN_291_YA], the enrichment score is inactive: 1.3.
For TLKDQLIYNLLKEEQ [LDHA_HUMAN_10], the enrichment score is inactive: 0.658.
DPIAMEAYNWGRFSK [LAT2_HUMAN_119_YA]: the enrichment score was inactive: 0.739.
As for TNFTNPVYATLAMGG [LRP1_HUMAN_4507_YA], the enrichment score is active: 4.07.
As to NDKKSIYYLGVTSIK [LEPR_HUMAN_1079], the enrichment score is inactive: 1.92.
On the same count and under the same terms, for AYQSRDYYNFPLALA [ANDR_HUMAN_365] the value was inactive: 2.22; for YGLAHSNYKEDYYLT [LMTK3_HUMAN_292], inactive: 1.01.
Still for that read-out and setting: the result for FGMARDIYRASAARR [LTK_HUMAN_672_YA] reads inactive: 0.523; that for GSSQEVTYAQLDHWA [LAIR1_HUMAN_251], active: 12.2.
As to SSEDSHDYVNVPTAE [LAX1_HUMAN_193], the enrichment score was inactive: 1.27.

The target of the next test is SHP2 N-SH2 domain T52S. The test is described as above. The following applies: peptide library: Human pTyr.
DPDSLADYFKKLNAK [LCP2_HUMAN_23_YA]: the enrichment score was inactive: 0.967.
Turning to EASQDVTYAQLHSLT [LIRB3_HUMAN_595], the enrichment score was inactive: 0.742.
As to IDPIAMEYANWGRFS [LAT2_HUMAN_118_YA], the enrichment score was inactive: 1.22.
For the molecule SNYKEDYYLTPERLW [LMTK3_HUMAN_297], the enrichment score was inactive: 1.13.
With GDDSDEDYEKVPLPN [3BP2_HUMAN_448], the enrichment score is inactive: 1.03.
With SMESIDDYVNVPESG [LAT_HUMAN_200], the enrichment score was inactive: 0.876.
Turning to DDYHNPGYLVVLPDS [LAT_HUMAN_161], the enrichment score is inactive: 0.658.
DDAHNPGYLVVLPDS [LAT_HUMAN_161_YA]: the enrichment score is inactive: 0.73.
With AGIGFSRYKEDAIET [LMTK2_HUMAN_291_YA], the enrichment score is inactive: 1.18.
For the molecule TLKDQLIYNLLKEEQ [LDHA_HUMAN_10], the enrichment score was inactive: 1.27.
As for DPIAMEAYNWGRFSK [LAT2_HUMAN_119_YA], the enrichment score is inactive: 0.859.
For TNFTNPVYATLAMGG [LRP1_HUMAN_4507_YA], the enrichment score is inactive: 1.32.
In the case of NDKKSIYYLGVTSIK [LEPR_HUMAN_1079], the enrichment score is inactive: 1.9.
Regarding AYQSRDYYNFPLALA [ANDR_HUMAN_365], the enrichment score is inactive: 2.21.
For the molecule YGLAHSNYKEDYYLT [LMTK3_HUMAN_292], the enrichment score was inactive: 0.745.
Turning to FGMARDIYRASAARR [LTK_HUMAN_672_YA], the enrichment score is inactive: 0.551.
Turning to GSSQEVTYAQLDHWA [LAIR1_HUMAN_251], the enrichment score was active: 6.06.
Still for that read-out and setting: the result for SSEDSHDYVNVPTAE [LAX1_HUMAN_193] reads inactive: 1.47.

A further test deals with SHP2 N-SH2 domain wild-type. The description is as above. The following applies: peptide library: Human pTyr.
As for DPDSLADYFKKLNAK [LCP2_HUMAN_23_YA], the enrichment score is inactive: 1.29.
With EASQDVTYAQLHSLT [LIRB3_HUMAN_595], the enrichment score was inactive: 0.696.
As for IDPIAMEYANWGRFS [LAT2_HUMAN_118_YA], the enrichment score is inactive: 0.888.
Consider SNYKEDYYLTPERLW [LMTK3_HUMAN_297], for which the enrichment score is inactive: 0.752.
As for GDDSDEDYEKVPLPN [3BP2_HUMAN_448], the enrichment score is inactive: 1.17.
SMESIDDYVNVPESG [LAT_HUMAN_200]: the enrichment score was inactive: 0.811.
Turning to DDYHNPGYLVVLPDS [LAT_HUMAN_161], the enrichment score is inactive: 0.738.
For the molecule DDAHNPGYLVVLPDS [LAT_HUMAN_161_YA], the enrichment score is inactive: 0.78.
As to AGIGFSRYKEDAIET [LMTK2_HUMAN_291_YA], the enrichment score was inactive: 1.01.
TLKDQLIYNLLKEEQ [LDHA_HUMAN_10]: the enrichment score was inactive: 1.09.
As to DPIAMEAYNWGRFSK [LAT2_HUMAN_119_YA], the enrichment score is inactive: 0.925.
Consider TNFTNPVYATLAMGG [LRP1_HUMAN_4507_YA], for which the enrichment score was inactive: 0.762.
Regarding NDKKSIYYLGVTSIK [LEPR_HUMAN_1079], the enrichment score was inactive: 2.45.
Still for that read-out and setting: the result for AYQSRDYYNFPLALA [ANDR_HUMAN_365] reads inactive: 2.59; that for YGLAHSNYKEDYYLT [LMTK3_HUMAN_292], inactive: 0.799; that for FGMARDIYRASAARR [LTK_HUMAN_672_YA], inactive: 0.839.
In the case of GSSQEVTYAQLDHWA [LAIR1_HUMAN_251], the enrichment score was inactive: 2.73.
In the case of SSEDSHDYVNVPTAE [LAX1_HUMAN_193], the enrichment score was inactive: 1.71.

The record behind these values is the supplement of paper PMC10369915.
